Data taken from PubChem BioAssay AID1030 (National Center for Advancing Translational Sciences (NCATS), 2008).
Values joined by “and” are separate entries in the source; they are usually repeats but may differ in a detail not shown here. Equal values may be shown once. The campaign covered roughly 220,000 compounds. About 16,000 (7.3%) were called active. Inconclusive results, whose numbers are uncertain, are shown with a selection of clear calls. The call rests on the fitted dose curve; in most records, active means well fitted inhibition curve with a large enough effect (not every such curve was filed as active); inconclusive means small, poorly fitted or top-dose-only effect, or another doubt; inactive means no such curve, though single readings can be large or run the other way. Where the call is inconclusive, the potency comes from a doubtful curve fit.

Biological target: Aldehyde dehydrogenase 1A1 (Homo sapiens) (UniProt P00352)
UniProt P00352, sequence (P00352 whole entry, looked up): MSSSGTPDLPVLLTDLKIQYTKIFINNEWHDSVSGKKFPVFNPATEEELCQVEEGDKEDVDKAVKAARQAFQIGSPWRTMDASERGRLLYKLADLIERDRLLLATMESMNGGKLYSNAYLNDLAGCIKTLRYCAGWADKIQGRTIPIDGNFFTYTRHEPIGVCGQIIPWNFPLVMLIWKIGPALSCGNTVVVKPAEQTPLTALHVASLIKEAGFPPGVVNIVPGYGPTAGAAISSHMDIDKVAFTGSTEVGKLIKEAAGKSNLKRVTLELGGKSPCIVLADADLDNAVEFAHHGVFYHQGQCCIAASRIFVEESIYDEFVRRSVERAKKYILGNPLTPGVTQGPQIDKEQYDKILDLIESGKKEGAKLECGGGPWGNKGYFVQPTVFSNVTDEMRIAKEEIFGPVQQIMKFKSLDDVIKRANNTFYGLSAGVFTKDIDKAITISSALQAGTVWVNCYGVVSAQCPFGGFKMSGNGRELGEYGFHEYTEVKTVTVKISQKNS
Test: qHTS Assay for Inhibitors of Aldehyde Dehydrogenase 1 (ALDH1A1)
Conditions: Purified ALDH1A1, NADH fluorescence, propionaldehyde substrate; series mostly up to 75.3 µM
Potency means the concentration at half of the fitted maximal effect; tags describe the fitted curve by direction and shape.

Potency, active:
COc1ccc(CONc2ncnc3nonc23)cc1[N+](=O)[O-] 14.1 µM
O=[N+]([O-])c1ccc(N2N=C(c3ccco3)CC2c2ccccc2)cc1 (configuration not stated) 10 µM
Cc1ccc(-c2nnc(N3CCN(C(=O)COc4ccccc4)CC3)c3ccccc23)cc1 28.2 µM
CCc1cc2c(=O)c(-c3ccc(F)cc3)c(C)oc2cc1OCC(=O)O 35.5 µM
COCCn1nnnc1C(c1cc2cc(C)ccc2[nH]c1=O)N1CCCCCC1 (configuration not stated) 25.1 µM
O=[N+]([O-])c1c(NCCO)cc(Sc2nc3ccccc3s2)c2nonc12 8.91 µM
CCCN1C(=O)/C(=N\OCC(=O)NC23CC4CC(CC(C4)C2)C3)c2ccccc21 0.282 µM
CCc1ccccc1NC(=O)c1cccs1 25.1 µM
O=C(NCCC1=CCCCC1)c1ccc(Br)o1 3.55 µM
CCN(CC)c1ccc(-n2c(C)cc(C=O)c2C)cc1 10 µM
COc1ccc(CNC(=O)c2ccc(Br)o2)cc1 25.1 µM
CC(=O)Nc1ccc(C(=O)CCl)cc1 0.0447 µM

Potency, inconclusive:
COc1ccc(S(=O)(=O)N2CCCCC2)cc1C(C)C 20 µM [inhibitor, partial curve]
S=c1[nH]ncn1/N=C/c1ccc(N2CCOCC2)cc1 39.8 µM [inhibitor, single point]
O=S(=O)(Nc1ccc2nc(-c3ccco3)[nH]c2c1)c1ccccc1 7.94 µM [inhibitor, partial curve]
CCN(C(=O)CSc1nnnn1-c1cc(C)ccc1OC)C1CCS(=O)(=O)C1 (configuration not stated) 25.1 µM [inhibitor, partial curve]
CCCCC1OC2(C)OC(=N)C1(C#N)C(C#N)(C#N)C2c1ccccc1 (configuration not stated) 28.2 µM [inhibitor, partial curve]
CCOC(=O)c1cnn(Cc2ccccc2Cl)c1N 39.8 µM [inhibitor, single point]
N=C(N)SCc1ncccc1O 39.8 µM [inhibitor, single point]
COc1ccccc1N1CCN(C(=O)c2ccc(S(=O)(=O)N3CCCCC3)cc2)CC1 28.2 µM [inhibitor, single point]
Cc1cc(C)n(C(=O)c2ccc(S(=O)(=O)NCC3CCCO3)cc2)n1 (configuration not stated) 39.8 µM [inhibitor, single point]
Nc1ccc(C(=O)Oc2ccc([N+](=O)[O-])cc2)c(O)c1 18.9 µM [inhibitor, single point]
CSC1=NC(=O)/C(=C/c2ccc(SC)cc2)S1 39.8 µM [inhibitor, single point]
O=C(c1cc(-c2ccc(O)cc2)on1)N1CCCc2ccccc21 39.8 µM [inhibitor, single point]
Cc1ccccc1Sc1ncnc2onc(C)c12 7.94 µM [inhibitor, partial curve, poor fit]
CCOC(=O)c1cc(CC)sc1NC(=O)COc1ccc2c(C)cc(=O)oc2c1 35.5 µM [inhibitor, single point]
Cc1cc(-c2ccccc2C(=O)O)on1 37.7 µM [inhibitor, single point]
O=S(=O)(c1ccc2c(c1)OCO2)N1CCN(c2nnnn2-c2ccccc2)CC1 2.82 µM [inhibitor, partial curve]
CCN(C(=O)c1coc(=O)c(Br)c1)c1ccc2c(c1)OCO2 20 µM [inhibitor, partial curve]
Cc1ccccc1CSc1nc2n(n1)C(c1cccs1)C1=C(CCCC1=O)N2 (configuration not stated) 39.8 µM [inhibitor, single point]
COc1ccc(CCNC(=O)COc2ccc(N(C)S(=O)(=O)c3ccc(C)cc3)cc2)cc1OC 39.8 µM [inhibitor, single point]
CCOC(=O)c1sc(NC(=O)CSc2nc(-c3ccco3)cc(C(F)(F)F)n2)c(C#N)c1C 25.1 µM [inhibitor, single point]
COc1ccc(C2C=C(c3ccccc3)Nc3nc(CCCO)nn32)cc1 (configuration not stated) 31.6 µM [inhibitor, partial curve]
O=C(CN(Cc1ccccc1)S(=O)(=O)c1ccccc1)N/N=C/c1ccc2c(c1)OCO2 20 µM [inhibitor, single point]
CCOc1ccc(C(=O)N/N=C/c2ccc(-c3ccc(S(=O)(=O)Nc4ncccn4)cc3)o2)cc1 22.4 µM [inhibitor, partial curve]
O=C(CSc1nnc(CCCN2C(=O)c3cccc4cccc(c34)C2=O)n1-c1ccccc1)N1CCCCC1 35.5 µM [inhibitor, single point]
Cc1cc2c(cc1C)NC1=C(N2)O[C@H](c2c[nH]c3ccc(COc4ccccc4)cc23)C1=O 8.91 µM [inhibitor, single point]
O=C(O)CSc1nnc(C2COc3ccccc3O2)n1-c1ccccc1 (configuration not stated) 31.6 µM [inhibitor, single point]
CCOC(=O)CCn1nc(-c2ccccc2)cc1N 39.8 µM [inhibitor, single point]
Cc1ccc(C)n1N1C(=O)/C(=C\c2ccc(Cl)cc2)SC1=S 7.08 µM [inhibitor, full curve]
C=CCNc1sc(C(=O)C(C)(C)C)c(N)c1C#N 44.7 µM [inhibitor, single point]
N#C/C(=C/c1ccc(N2CCCC2)c([N+](=O)[O-])c1)c1nc2ccccc2[nH]1 2.82 µM [inhibitor, full curve]
Cc1cccc(Nc2nnc(-c3ccc(C(=O)N4C[C@H]5C[C@H](C4)c4cccc(=O)n4C5)cc3)c3ccccc23)c1 31.6 µM [inhibitor, partial curve]
O=C(CC(SCCO)c1ccc2c(c1)OCO2)c1ccco1 (configuration not stated) 39.8 µM [inhibitor, single point]
CC1(C)CC(=O)C2=C(C1)OC(N)=C(C#N)C2c1ccoc1 (configuration not stated) 39.8 µM [inhibitor, single point]
CCCn1cc(SCC(=O)NCC2CCCO2)c2ccccc21 (configuration not stated) 39.8 µM [inhibitor, single point]
Cc1cc(C(=O)CSc2nnc(-c3ccco3)o2)c(C)n1Cc1ccco1 39.8 µM [inhibitor, single point]
Cc1ccc(C)c2c1cc(C)c1nnc(SCC(=O)c3cccs3)n12 39.8 µM [inhibitor, single point]
CCOC(=O)c1nc(Nc2ccc(C(C)=O)cc2)c2ccccc2n1 39.8 µM [inhibitor, single point]
COC(=O)c1c(NC(=O)C2C3C=CC(CC3)C2C(=O)O)sc(C)c1C (configuration not stated) 39.8 µM [inhibitor, single point]
Cc1cccc(-n2c(C)cc(/C=N/NC(=O)c3cccc([N+](=O)[O-])c3C)c2C)c1 22.4 µM [inhibitor, partial curve]
COC(=O)[C@@H](NC(=O)O[C@@H]1C(=O)c2cc(Br)ccc2O[C@H]1c1cccc(OC)c1)C(C)C 35.5 µM [inhibitor, single point] and 28.2 µM [inhibitor, single point]

Potency, inactive:
CC/C=C\C/C=C\C/C=C\C/C=C\C/C=C\CCC(=O)O[C@H](COCCCCCCCCCCCCCCCC)COP(=O)([O-])OCC[N+](C)(C)C
Cc1c(NC(=O)c2ccco2)cccc1C(=O)NN1C(=O)c2ccccc2C1=O
CCOc1ccc(C(C)NC(=O)C2CCC2)cc1 (configuration not stated)
Cc1ccnc(NC(=O)/C=C/c2ccccc2Cl)c1
Cc1ccc(S(=O)(=O)N(C)CC(=O)OCC(=O)N2CC(=O)Nc3ccccc32)cc1
COc1cc2nc(C3CCC3)n(NC(=O)COc3ccccc3)c(=O)c2cc1OC
COC(=O)CCC(=O)OC1(C)C(=O)C2=COC(c3ccc(OC)cc3)=CC2=C(Br)C1=O (configuration not stated)
COc1cc(/C=C2\C(=O)N(CCC#N)N=C2C)c(Br)cc1OC(C)C
COC(=O)Cc1ccc(Oc2ncc(C(F)(F)F)cc2Cl)cc1
Cc1ccc(-c2ccc(C(=O)O)[nH]2)cc1
COc1ccc(COc2ccsc2C(=O)Nc2ccc(Cl)cc2)cc1
O=C1OC(CO)C(O)C(O)C1O (configuration not stated)
Fc1ccc(-c2csc3nnc(SCc4cccnc4)n23)cc1
CC1CC(C)CN(C(=O)COC(=O)CNS(=O)(=O)/C=C/c2ccccc2)C1 (configuration not stated)
Cc1[nH]c2ccccc2c1C(=O)COC(=O)C(C)C
O=C(COc1ccc(Br)cc1)NNC(=S)NC(=O)c1ccccc1[N+](=O)[O-]
O=C(NNS(=O)(=O)c1ccc(Br)cc1)c1sccc1-n1cccc1
CN(c1ccccc1)c1ccc(/C=N/NC(=O)CC#N)cc1
COC(=O)[C@@]1(Cc2ccccc2)[C@H]2c3cc(C(=O)N4CCCC4)n(CCc4ccccn4)c3C[C@H]2CN1C(=O)c1ccccc1
Cc1ccc(CNC(=O)CSc2nc3[nH]ncc3c(=O)[nH]2)cc1
